In PubChem BioAssay AID588795 (National Center for Advancing Translational Sciences (NCATS), 2011):
Where “and” joins values, the source holds several entries; their conditions need not be identical. Equal values may be shown once. Screen size: about 390,000 compounds; about 1,400 (0.36%) were called active. This list was built around the results that the source calls inconclusive (neither active nor inactive); the mix of calls is not that of the screen. Calls come from the whole dose curve; as a rule, active = well fitted inhibition curve with a large enough effect; inconclusive = small, poorly fitted or top-dose-only effect; inactive = no such curve, though single readings can be large or run the other way. Where the call is inconclusive, the potency comes from a doubtful curve fit.

These molecules were tested against Flap endonuclease 1 (Homo sapiens) (UniProt P39748) (assay: qHTS Assay for the Inhibitors of Human Flap endonuclease 1 (FEN1).). Settings: Recombinant FEN1 flap cleavage, fluorescence, 15 min; series mostly up to 114 µM.
Procedure, shortened: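 Compounds are tested as a concentration series against 10 nM FEN1; after a 15 min room-temperature preincubation, 50 nM substrate starts cleavage, with plate reads at 0 and 15 min. Normalized responses are fitted by a Hill equation.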
Note: nearly all actives have a fitted effect of over 65% in size.
Potency is the fitted concentration of half-maximal effect; tags give direction and shape of the fitted curve.

Chain of UniProt P39748 (P39748 whole entry, looked up): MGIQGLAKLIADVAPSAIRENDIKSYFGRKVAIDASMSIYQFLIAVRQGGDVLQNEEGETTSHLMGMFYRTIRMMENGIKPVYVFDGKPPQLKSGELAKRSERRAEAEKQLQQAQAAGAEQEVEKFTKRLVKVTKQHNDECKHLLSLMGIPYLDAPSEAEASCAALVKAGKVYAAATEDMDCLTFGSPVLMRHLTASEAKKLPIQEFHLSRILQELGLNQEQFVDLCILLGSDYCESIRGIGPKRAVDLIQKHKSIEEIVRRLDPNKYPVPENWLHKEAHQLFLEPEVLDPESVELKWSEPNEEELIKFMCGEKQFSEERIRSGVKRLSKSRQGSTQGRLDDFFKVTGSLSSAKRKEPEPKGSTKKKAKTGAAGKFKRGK

SMILES	Potency
CCOC(=O)C1CCN(c2ncnc3c2c(-c2ccccc2)cn3-c2ccc(C)c(Cl)c2)CC1	inactive
COc1ccc(OC)c(/C=N/NC(=O)c2[nH]ncc2Br)c1	inactive
Cc1cc(C)c2oc(C(=O)Nc3ccc(S(=O)(=O)Nc4nccs4)cc3)cc(=O)c2c1	inactive
CC(C)(O)c1ccccc1CC[C@@H](SCC1(CC(=O)O)CC1)c1cccc(/C=C/c2ccc3ccc(Cl)cc3n2)c1	inactive
Cc1ccccc1OCCNc1cc(N2CC(C)NC(C)C2)ccc1[N+](=O)[O-] (stereo not given)	inconclusive: 50.1 µM [inhibitor, partial curve, poor fit]
CCOC(=O)c1cc(C#N)c(SC(C(=O)N2CCCCC2)c2ccccc2)nc1C (stereo not given)	inconclusive: 89.1 µM [inhibitor, single point]
CCOc1c(OC(C)=O)ccc(/C=C/c2ccc3cccc(OC(C)=O)c3n2)c1[N+](=O)[O-]	inactive
O=C(O)c1cccc2c1Cc1cc([N+](=O)[O-])ccc1-2	inconclusive: 79.4 µM [inhibitor, single point]
O=C(Nc1ccc(Cl)c([N+](=O)[O-])c1)c1cnccn1	inactive
CC1(C)CCC(=O)c2ccccc21	inactive
COc1ccc(/C=C2\Sc3ccc(C(=O)NCCN4CCCCCC4)cc3N(C)C2=O)cc1	inconclusive: 44.7 µM [inhibitor, partial curve, poor fit]
CN=C1S/C(=C\c2ccc(O)c(Br)c2)C(=O)N1C	inactive
CC(Oc1ccccc1Cl)C(=O)Nc1ccc(S(=O)(=O)N2CCN(C)CC2)cc1 (stereo not given)	inconclusive: 89.1 µM [inhibitor, partial curve, poor fit]
Cc1cc(C)nc(N/N=C/C2=C(N3CCOCC3)C(=C/c3ccccc3)/CC2)n1	inconclusive: 50.1 µM [inhibitor, partial curve, poor fit]
CCC(=O)Nc1nc(C)c(-c2csc(Nc3ccccn3)n2)s1	inconclusive: 44.7 µM [inhibitor, partial curve, poor fit]
O=C(O)c1ccc(N/N=C/c2ccc(-c3ccc(Cl)cc3Cl)o2)cc1	inconclusive: 89.1 µM [inhibitor, single point]
Cc1nnc(-c2cccc(Br)c2)c2cn(-c3ccc(Br)cc3)nc12	inconclusive: 79.4 µM [inhibitor, single point]
COc1cc(-c2noc(C)c2C#Cc2nccn2C)cc(OC)c1OC	inconclusive: 44.7 µM [inhibitor, partial curve, poor fit]
Clc1ccccc1C1Nc2cccc3cccc(c23)N1	inconclusive: 5.01 µM [inhibitor, full curve, poor fit]
Fc1ccc(-c2cc(-c3ccccc3)nc(-n3cccn3)n2)cc1	inconclusive: 8.91 µM [inhibitor, partial curve, poor fit]
O=S(=O)(NCCc1nnc2ccc(SCc3c(F)cccc3Cl)nn12)c1ccccc1	inconclusive: 39.8 µM [inhibitor, partial curve, poor fit]
CC[N+](C)(C)c1ccc(/C=C/c2ccncc2)cc1	inconclusive: 79.4 µM [inhibitor, single point]

SMILES	Potency
C/C(=N\NC(=O)c1cccc([N+](=O)[O-])c1)c1ccco1	inactive
O=C(OCCF)N1CCN(/[N+]([O-])=N/Oc2ccc([N+](=O)[O-])cc2[N+](=O)[O-])CC1	inconclusive: 25.1 µM [inhibitor, partial curve, poor fit]
CCNc1ccccc(C(=O)/C=C/c2ccc3c(c2)OCO3)c1=O	inconclusive: 50.1 µM [inhibitor, partial curve, poor fit]
O=c1nc2cccc3c2=c(/c1=C(\O)c1ccccc1)c1ccccc1c3=O	inconclusive: 79.4 µM [inhibitor, single point]
COc1cccc(CC(=O)Nc2ccc3c(c2)OC2(CCCC2)O3)c1	inconclusive: 70.8 µM [inhibitor, partial curve, poor fit]
Cc1ccc2c(c1)c1ncnc(N3CCc4ccccc4C3)c1n2C	inconclusive: 89.1 µM [inhibitor, partial curve, poor fit]
O=C1N=C(N2CCOCC2)SC1=Cc1ccco1	inactive
Nc1nc(N)c2cc([N+](=O)[O-])ccc2n1	inconclusive: 89.1 µM [inhibitor, partial curve, poor fit]
O=C(CSc1nc(-c2ccc(F)cc2)nc2c1Cc1ccccc1O2)Nc1cccc(C(=O)O)c1	inconclusive: 12.6 µM [inhibitor, partial curve, poor fit] and inconclusive: 44.7 µM [inhibitor, partial curve, poor fit]
COc1cc(NC(=O)C2CCN(S(=O)(=O)c3c(C)noc3/C=C/c3cccs3)CC2)cc(OC)c1	inconclusive: 89.1 µM [inhibitor, partial curve, poor fit]
O=C(N/N=C/c1cn(Cc2cccc(F)c2)c2ccccc12)c1cc(O)cc(O)c1	active: 22.4 µM
CC(=O)c1ccc(S(=O)(=O)NCCCC(=O)N(C)Cc2ccc3c(c2)OCO3)cc1	inactive
O=C(Nc1n[nH]c(=S)s1)c1ccco1	inconclusive: 89.1 µM [inhibitor, single point]
Clc1ccc(-c2nc(NCCN3CCOCC3)c3ccccc3n2)cc1	inconclusive: 79.4 µM [inhibitor, partial curve, poor fit]
CCCn1c(=O)c2ccccc2n2c(SCC(=O)c3ccccc3)nnc12	inactive
CC(=O)Nc1ccc(N/C(N)=N/c2nc(C)cc(C)n2)cc1	inconclusive: 89.1 µM [inhibitor, single point]
Cc1cccc(C)c1-n1nnnc1C1(Nc2ccccc2)CCCCC1	inactive
CN(C)CCNc1ncnc2oc(-c3ccccc3)c(-c3ccccc3)c12	inconclusive: 79.4 µM [inhibitor, partial curve, poor fit]
COc1ccc(C2C(C(C)=O)=C(C)N=c3s/c(=C\c4cc(C)n(C)c4C)c(=O)n32)c(OC)c1 (stereo not given)	inconclusive: 35.5 µM [inhibitor, partial curve, poor fit]
COc1ccc(C(=O)c2nccc3cc(OC)c(OC)cc23)cc1OC	inactive
COc1ccc(Cn2c(C)nc3c(c(=O)c4ccccc4n3C)c2=O)cc1	inconclusive: 56.2 µM [inhibitor, partial curve]
C[C@H]1c2cccc(O)c2C(=O)C2C(=O)C3(O)C(=O)C(C(N)=O)C(=O)[C@@H](N(C)C)[C@@H]3[C@@H](O)[C@@H]21 (stereo not given in full)	inconclusive: 25.1 µM [inhibitor, partial curve, poor fit]

SMILES	Potency
CCn1c(=O)c([N+](=O)[O-])c(NCc2ccc3c(c2)OCO3)c2ccccc21	inconclusive: 35.5 µM [inhibitor, partial curve]
CCC(NC(=O)Nc1cc(Cl)ccc1OC)c1c(-n2cccc2)sc2c1CCN(C)C2 (stereo not given)	inactive
S=c1[nH]nc(-c2ccccn2)n1/N=C/c1cccs1	inactive
O=C(OCC(=O)N1CCN(S(=O)(=O)c2ccc(Cl)cc2)CC1)c1ccc([N+](=O)[O-])o1	inconclusive: 12.6 µM [inhibitor, full curve, poor fit]
FC(F)(F)c1cc(CCN2C(=S)NC[C@@H]2Cc2ccccc2)cc(C(F)(F)F)c1	inconclusive: 31.6 µM [inhibitor, partial curve, poor fit]
COc1cc2sc3cc(NCCCN4CCOCC4)ccc3c(=O)c2cc1OC	inconclusive: 17.8 µM [inhibitor, full curve]
COc1ccc(NC(=O)CN(Cc2ccccc2)S(=O)(=O)c2ccc3nc(C)sc3c2)cc1	inactive
O=c1[nH]c(Nc2ccccc2)cc2ccccc12	inconclusive: 89.1 µM [inhibitor, partial curve, poor fit]
COc1ccc(NC(=O)c2cccc3c2C(=O)N(CC2CCCO2)C3)cc1OC (stereo not given)	inconclusive: 79.4 µM [inhibitor, single point]
Cc1cccn2c(=O)c3cc(C#N)c(=O)n(CCCN4CCOCC4)c3nc12	inconclusive: 79.4 µM [inhibitor, partial curve, poor fit]
CCCCCC1CCC(c2ccc(/C(N)=N/O)cc2)CC1 (stereo not given)	inconclusive: 50.1 µM [inhibitor, partial curve, poor fit]
CCCCN(CC)CCCNC(=O)c1cc2c(-c3ccc(OC)c(OC)c3)nn(C)c2s1	active: 31.6 µM and active: 35.5 µM
CC(=O)Nc1ccccc1O	inactive
COc1ccc(CCNc2oc(-c3ccc(OC)c(OC)c3)nc2C#N)cc1	inconclusive: 44.7 µM [inhibitor, partial curve, poor fit]
O=C(Nc1cc(Cl)cc(Cl)c1)c1ccc(F)c(S(=O)(=O)N2CCCCCC2)c1	inactive
CCC(=O)NC1=C(Cl)C(=O)C(NC(=O)CC)=C(Cl)C1=O	inconclusive: 20 µM [inhibitor, partial curve, poor fit]
Cc1c(C(=O)NNC(=S)Nc2ccc(S(N)(=O)=O)cc2)oc2ccccc12	inactive
CCN(CC)CCN(C(=O)c1ccco1)c1nc2c(C)cccc2s1	inconclusive: 70.8 µM [inhibitor, single point]
CCS(=O)(=O)Nc1ccc(-c2nc3cccnc3s2)cc1	inconclusive: 56.2 µM [inhibitor, partial curve, poor fit]
COc1ccc(Cl)cc1NC(=O)CN(C)CC(=O)Nc1ccc(C)cc1Br	inactive
Cc1ccc(C)c(OCc2nnc(NC(=O)c3ccco3)s2)c1	inconclusive: 89.1 µM [inhibitor, partial curve, poor fit]
